Assay results published in PubChem BioAssay AID2094 (Broad Institute, 2009).
In all, about 300,000 compounds went through this assay and about 1,200 (0.4%) were called active. Inconclusive means that the source gave no clear call. Such entries were picked first, then a sample of the others. Cut-off read from the data, not from the text of the source: active = activity change below about -75% (passing the limit was not always enough); inconclusive = no clear call, values can overlap the other calls.

Test: Vibrio harveyi AI-2 quorum sensing modulators, primary screen, JMH597 strain, luminescence/OD600 ratio (AID 2094);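 note: luminescence divided by OD600 gain over 9 h not by final OD600 alone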
Details: Vibrio harveyi JMH597 AI-2 luminescence/OD600 ratio, 9 h; at 7.5 µM; active compounds read low; 0 = neutral-control median; strain lacks LuxN and CqsS sensors

| Compound | activity change |
| --- | --- |
| COC(=O)c1ccc(Oc2ccc(C(C)(C)C)cc2)c([N+](=O)[O-])c1 | inconclusive: -72.8% |
| CC(C)(C)NC(=O)Cn1c(-c2nonc2N)nc2ccccc21 | inconclusive: -92.8% |
| O=C(CN1C(=O)c2ccccc2C1=O)OCC(=O)N1CCc2ccccc2C1 | inconclusive: -96.7% |
| CCN(CC)c1ccc(C(=O)Nn2cnc3ccccc3c2=O)cc1 | inconclusive: -74.3% |
| Cc1cc(C(=O)NNC(=O)c2ccc(C(F)(F)F)cc2)no1 | inconclusive: -74.3% |
| CC(Sc1ccc(Cl)cc1)C(=O)NNC(=O)c1csc(N2CCOCC2)n1 (centres undefined) | inconclusive: -77.2% |
| CC(C)(C)c1ccc(Cc2n[nH]c(=S)[nH]c2=O)cc1 | inconclusive: -68.7% |
| O=C(Cc1cccs1)NNC(=S)NC(=O)c1ccccc1 | inconclusive: -31.7% |
| CC(C)(C)C(=O)NC(=S)NNC(=O)c1ccc(-c2ccccc2)cc1 | inconclusive: -24.1% |
| CCS(=O)(=O)c1ccc2oc(Nc3cccc(OC)c3)nc2c1 | inconclusive: -56% |
| COc1ccccc1N1CCN(C(=O)c2cc(-c3cccc(Cl)c3)on2)CC1 | inactive: 16.3% |
| COc1cc(/C(C#N)=C/c2ccccc2)c([N+](=O)[O-])cc1OC | inconclusive: -392% |
| COc1cccc2cc(-c3cc(=O)oc4ccc(OCC(C)=O)cc34)oc12 | inactive: 12.6% |
| COc1cc(N2C(=O)C=CC2=O)c(OC)cc1Cl | active: -91.6% |
| O=C(NNC(=S)NC(=O)c1ccccc1)c1ccc(O)cc1 | inconclusive: -117% |
| COc1ccc(CC(=O)Nc2ccc(C(N)=O)cc2)cc1 | inconclusive: -79% |
| CCN(CC)CCCN1C=C2C(=O)C(C)(OC(=O)CCC(=O)OC)C(=O)C=C2C=C1C1CC1 (centres undefined) | inactive: 2.16% |
| CN(C)c1ccc(NC(=O)COC(=O)c2cc(Cl)ccc2[N+](=O)[O-])cc1 | inconclusive: -66.7% |
| CC(C)c1ccccc1NS(=O)(=O)c1cccs1 | inactive: -46.1% |
| COc1cccc(-n2c(=O)c3sccc3n(CC(=O)NCC3CCCO3)c2=O)c1 (centres undefined) | inactive: 8.22% |
| Cc1cc(NS(=O)(=O)c2ccc(NC(=O)CCc3ccccc3)cc2)no1 | active: -91.3% |
| CCSc1nsc(NC(=O)Nc2ccc(F)cc2F)n1 | inconclusive: -73.1% |
| CCOc1ccccc1NC(=O)Cn1c(-c2ccc(Cl)cc2)noc1=O | inactive: 38.5% |

| Compound | activity change |
| --- | --- |
| COc1ccc(OCC(=O)NNC(=S)NC(=O)C2CC2)cc1 | inconclusive: -47.9% |
| COc1ccc(NC(=O)CN(c2ccc(OC)c(Cl)c2)S(=O)(=O)c2ccccc2)cc1 | inconclusive: -53.1% |
| CC(C)c1ccc(CNc2ccc3c(c2)ncn3C)cc1 | active: -78.7% |
| O=C(Nc1cccc(-c2nc3cccnc3s2)c1)C1c2ccccc2Oc2ccccc21 | inactive: 16.4% |
| CCCOc1ccc(C(=O)NNC(=S)NC(C)=O)cc1 | inconclusive: -93.5% |
| O=C(Cc1c(F)cccc1Cl)Nc1ccc(S(=O)(=O)N2CCCC2)cc1 | inconclusive: -38.3% |
| O=C(CSc1ccccc1)Nc1ccc(S(=O)(=O)NCC2CCCO2)cc1 (centres undefined) | active: -96.9% |
| Cn1c(Sc2ccc(Cl)cc2)c(C=O)c2ccccc21 | inconclusive: -425% |
| C#CCOCCOCCOCCNc1nc(N2CCN(C(=O)CCCCCCCCCCNC(=O)[C@H](CCCCN)n3cc(CCCC(=O)O)nn3)CC2)nc(N2CCN(C(=O)CCCCCCCCCCNC(=O)[C@H](CCCCN)n3cc(CCCC(=O)O)nn3)CC2)n1 | inconclusive: -65.7% |
| O=C(CC(=O)c1ccccc1O)c1ccc(F)cc1 | inconclusive: -8.01% |
| CS(=O)(=O)c1nc(-c2ccccc2)cc(C(F)(F)F)n1 | inconclusive: -70.2% |
| O=C(COc1ccc(Cl)cc1)c1ccc(O)cc1O | inconclusive: -73.1% |
| CCc1ccc(C(=O)NNC(=O)CN2C(=O)NC(CC)(c3ccccc3)C2=O)cc1 (centres undefined) | active: -82.8% |
| COc1cc(/C=N/NC(=O)c2cc(-c3c(C)nn(-c4ccccc4)c3C)n[nH]2)ccc1O | inconclusive: -50.8% |
| CSc1nnc(-c2ccccc2)o1 | inconclusive: -41.8% |
| CCS(=O)(=O)N1CCN(c2ccc([N+](=O)[O-])c(NC(C)c3ccccc3)c2)CC1 (centres undefined) | inconclusive: -387% |
| Cc1nc(-c2ccc(Cl)cc2)sc1C1(C)CC(c2c(Cl)cccc2Cl)=NO1 (centres undefined) | inactive: 5.8% |
| Cc1cccc(N2CCN(S(=O)(=O)c3ccc4c(c3)CCCN4C(=O)C3CCC3)CC2C)c1 (centres undefined) | inactive: 7.75% |
| CN(Cc1cccc(F)c1)C(=O)c1ccccc1Sc1ccccc1C#N | inconclusive: -48.4% |
| Cc1ccc(Nc2nnc(SCC(=O)NCc3ccco3)s2)cc1 | inconclusive: -98.6% |
| COc1ccc(S(=O)(=O)NCc2cccnc2)cc1NC(=O)c1ccc(Cl)cc1 | inconclusive: -68.5% |
| CCCCC1(C)NC(=O)N(CC(=O)Nc2ccc(S(=O)(=O)N3CCOCC3)cc2)C1=O (centres undefined) | inconclusive: -74.2% |
| CCOC(=O)c1c(NC(=O)C2C3C=CC(C3)C2C(=O)O)sc2c1CC(C)CC2 (centres undefined) | inconclusive: -162% |

| Compound | activity change |
| --- | --- |
| CCCCC(=O)NC(c1cccs1)c1cc(Cl)c2cccnc2c1O (centres undefined) | inconclusive: -47.2% |
| CCOC(=O)C1CCN(C(=O)Nc2ccc3nc(-c4ccco4)c(-c4ccco4)nc3c2)CC1 | inactive: 36.8% |
| O=C(CSc1nnc(SCc2ccccc2)s1)N/N=C/C=C\c1ccco1 | inactive: 11.5% |
| COc1cccc(/C=N/NC(=O)CCn2cnc3ccccc32)c1 | inactive: 5.56% |
| O=C(COC(=O)c1ccco1)Nc1nc2ccccc2s1 | inconclusive: -64% |
| N#Cc1nc(-c2ccc(F)cc2)oc1NCc1cccc2c1OCO2 | inconclusive: -74.6% |
| O=C(COC(=O)c1ccc(O)cc1O)Nc1ccc(Cl)cn1 | active: -82.9% |
| COCCn1nnnc1CN(CCCN1CCOCC1)Cc1cc2c(C)ccc(C)c2[nH]c1=O | inconclusive: -400% |
| CC1CC(=O)c2c(cc3c(-c4c(O)cc(O)c5c(O)c6c(cc45)OC(C)CC6=O)c(O)cc(O)c3c2O)O1 (centres undefined) | active: -81.7% |
| COc1ccc(NC(=O)Cc2nnc(SCC(=O)Nc3ccccc3)n2C)cc1 | inconclusive: -43.4% |
| CC(C)c1ccc(OCC(=O)N2CCc3ccccc3C2)cc1 | inconclusive: -75.4% |
| c1ccc(Cc2ccc(OCCn3cncn3)cc2)cc1 | inconclusive: -76.8% |
| COc1ccc(NC(=O)CS(=O)c2cccc(C(F)(F)F)c2)cc1 (centres undefined) | inactive: 3.51% |
| Cc1cccc(NCc2nc(-c3ccccc3)no2)c1 | inconclusive: -77.4% |
| Cc1ccc(NC(=O)CCOc2ccccc2C)cc1F | inconclusive: -75.8% |
| S=C1NC(c2cccs2)=CC(c2ccc(Br)cc2)N1 (centres undefined) | inconclusive: -75.5% |
| N#Cc1nc(-c2ccccc2)oc1NCc1ccco1 | inconclusive: -75.3% |
| O=c1[nH]c(CN2CCCCC2)nc2ccccc12 | inconclusive: -178% |
| Cc1ccc(NC(=O)C2CCN(S(=O)(=O)c3c(C)n[nH]c3C)CC2)nc1 | inactive: 11.8% |
| Cc1ncc(CO)c(/C=N/NC(=O)c2cc(Br)ccc2O)c1O | inconclusive: -56.3% |
| COC(=O)/C(=C1/Oc2cc(C)oc(=O)c2S1)C(F)(F)F | inconclusive: -70.2% |
| Cc1cc2ncn(/N=C/c3ccc([N+](=O)[O-])s3)c2cc1C | inconclusive: -16.1% |
| COc1ccc(C(=O)NNC(=S)NC(=O)c2ccco2)cc1 | active: -149% |

| Compound | activity change |
| --- | --- |
| O=C1C=CC(=O)N1c1ccc(N2CCCCC2)cc1 | inconclusive: -75% |
| Cc1ccc(CNC(=O)C2CCC(=O)N(Cc3cccc(C(F)(F)F)c3)C2)o1 (centres undefined) | inactive: 13.3% |
| N/C(=N\OC(=O)COc1ccc(Cl)cc1)c1cccnc1 | inconclusive: -74% |
| Oc1c(C(c2ccccn2)N2CCC(Cc3ccccc3)CC2)cc(Cl)c2cccnc12 (centres undefined) | inconclusive: 28.8% |
| COc1ccc(CCNC(=O)C2CCCN(S(C)(=O)=O)C2)cc1OC (centres undefined) | active: -292% |
| O=C(COc1ccccc1)Nc1ccc(S(=O)(=O)N2CCCCCC2)cc1 | inconclusive: -49.9% |
| O=S(=O)(c1ccc(Oc2ccc(Br)cc2F)nc1)N1CCCCC1 | inconclusive: -79.2% |
| COc1ccc(OCC(=O)Nc2ccc(S(=O)(=O)Nc3cc(C)on3)cc2)cc1 | active: -84.2% |
| O=C(N/N=C/c1ccc([N+](=O)[O-])s1)C(O)c1ccccc1 (centres undefined) | inconclusive: -69.6% |
| O=C(CCc1ccccc1)Nc1nnc(-c2cccs2)o1 | inconclusive: -77.2% |
| COc1ccccc1-[n+]1c(C)cc(/C=C2\Sc3ccccc3N2C)cc1C | inconclusive: -51.3% |
| O=C(Nc1cccc(N2C(=O)C=CC2=O)c1)c1cccs1 | inconclusive: -46.9% |
| CCCC1(CCC)NC(=O)N(CC(=O)Nc2cccc(OC)c2)C1=O | inconclusive: -74.6% |
| CC(CCc1ccccc1)NC(=O)CCCn1ncn2c(cc3occc32)c1=O (centres undefined) | inconclusive: -59.6% |
| CCn1c(SCc2ccccc2)nnc1-c1ccc(S(=O)(=O)N2CCCCC2)cc1 | inconclusive: -78.1% |
| CC(OC(=O)c1cccc(-n2cnnn2)c1)C(=O)Nc1cccc(Cl)c1 (centres undefined) | inactive: 1.1% |
| Oc1ccc(COCc2ccccc2)c2cccnc12 | inconclusive: -32.4% |
| O=C(/C=C/c1cccs1)NCc1ccc2c(c1)OCO2 | active: -90.3% |
| O=C(/C=C/c1ccccc1Cl)c1ccc(O)cc1 | inconclusive: -69.2% |
| Cc1cccc(NC(=O)CCN2C(=O)c3ccccc3C2=O)c1 | inconclusive: -74.2% |
